{"source": "patent US20230414619A1", "about": "(priority 2020, published 2023)", "test_system": "Raw 264.7 cells", "test": "AACT/SILAC pulse-labeling translatome: protein turnover rates", "assay_type": "cell-based, mouse", "experimental": "G9a KO, control and (1 μM) UNC0642 treated control cells were either untreated (N) or treated with low dose (100 ng/ml) LPS to induce endotoxin tolerance. The cells were washed with PBS twice to remove light medium (KORO), and then switched to heavy AACT DMEM medium containing stable isotope-enriched D4-lysine and ^13C6-arginine to label newly synthesized proteins. The cells were harvested at 2 h, 4 h, 8 h, 24 h, 48 h, and 72 h, and lysed in 8 M urea containing 50 mM Tris-HCl pH 8.0. One hundred micrograms protein from each condition was digested with trypsin, desalted, and fractionated with C18 material (High pH) into eight fractions followed by LC-MS/MS analysis.\nTo correct for errors introduced during sample-preparation/data-acquisition, protein intensities were normalized based on the premise that the sum of KO/RO (M) and the K4/R6 (H) intensities should be constant across different time-points. After normalization, curves for estimation of turnover rates, determined from the kinetics of AACT label incorporation or loss, were fitted based on the assumption of exponential protein degradation (or synthesis) and constant offset (γ).\nProteins identified in at-least 4 out of 6 time points were selected for curve fitting using the model described above. […]", "data": [{"smiles": "COc1cc2c(NC3CCN(C(C)C)CC3)nc(N3CCC(F)(F)CC3)nc2cc1OCCCN1CCCC1", "note": "[UNC0642]", "values": [{"measurement": "median protein half-life (global protein turnover)", "setting": "T (endotoxin tolerance) condition, 1 μM, wild type range in T starts at 24.8 h, FIG. 4C", "value": 26.9, "unit": "h"}, {"measurement": "synthesis or turnover of G9a-translated proteins", "setting": "macrophages, 1 μM UNC0642", "value": "decreased"}]}]}
